Laboratory results reported in publication PMC5811451 (2018).
Each block holds one molecule with its values, some of them ahead of it.

How the values were obtained:
[1] = system: Mango IV variant 20 (5' CGA of core replaced with GAA) (RNA, aptamer) GGCACGUACGAAGGGAGUGGUGAGGAUGAGGCGAGUACGUGC; assay: fluorescence titration with RNA; settings: 140 mM KCl, 1 mM MgCl2; 10 mM NaH2PO4 pH 7.2, 0.05% Tween-20; four-fold weaker than Mango IV
[2] = system: Mango III without 3' UUC (RNA, aptamer) GGCACGGAAGGAAGGAUUGGUAUGUGGUAUACGUGCC; assay: fluorescence titration with RNA; settings: 140 mM KCl, 1 mM MgCl2; 10 mM NaH2PO4 pH 7.2, 0.05% Tween-20
[3] = system: Mango III without 5' GAA (RNA, aptamer) GGCACGGGAAGGAUUGGUAUGUGGUAUAUUCCGUGCC; assay: fluorescence titration with RNA; settings: 140 mM KCl, 1 mM MgCl2; 10 mM NaH2PO4 pH 7.2, 0.05% Tween-20
[4] = system: Mango IV (RNA, G4) GGCACGUACCGAGGGAGUGGUGAGGAUGAGGCGAGUACGUGC; assay: fluorescence titration with RNA; settings: 140 mM KCl, 1 mM MgCl2; 10 mM NaH2PO4 pH 7.2, 0.05% Tween-20; 1.4 nM TO3-Biotin
[5] = system: Mango II (RNA, G4) GGCACGUACGAAGGAGAGGAGAGGAAGAGGAGAGUACGUGC; assay: fluorescence titration with RNA; settings: 140 mM KCl, 1 mM MgCl2; 10 mM NaH2PO4 pH 7.2, 0.05% Tween-20; 1.4 nM TO3-Biotin
[6] = system: Mango I (RNA, G4) GGCACGUACGAAGGGACGGUGCGGAGAGGAGAGUACGUGC; assay: fluorescence titration with RNA; settings: 140 mM KCl, 1 mM MgCl2; 10 mM NaH2PO4 pH 7.2, 0.05% Tween-20; 1.4 nM TO3-Biotin
[7] = system: Mango III (RNA, G4) GGCACGUACGAAGGAAGGAUUGGUAUGUGGUAUAUUCGUACGUGCC; assay: fluorescence titration with RNA; settings: 140 mM KCl, 1 mM MgCl2; 10 mM NaH2PO4 pH 7.2, 0.05% Tween-20; 1.4 nM TO3-Biotin
[8] = system: Mango I (RNA, G4) GGCACGUACGAAGGGACGGUGCGGAGAGGAGAGUACGUGC; assay: competition with TO1-B fluorescence; settings: TO1-B displaced; in vitro transcription mixture

KD [1]: 40 ± 2 nM | binding [2]: no | binding [3]: no
Structure (SMILES): CN1C=CC(=Cc2sc3ccccc3[n+]2CC(=O)NCCOCCOCCOCCNC(=O)CCCC[C@@H]2SC[C@@H]3NC(=O)N[C@@H]32)c2ccccc21

KD [4]: 10.4 ± 0.1 nM | KD [5]: 1.8 ± 0.1 nM | KD [6]: 5.1 ± 0.3 nM | KD [7]: 15.0 ± 1.3 nM
Structure (SMILES): CN1C=CC(=C/C=C/c2sc3ccccc3[n+]2CC(=O)NCCOCCOCCOCCNC(=O)CCCC[C@@H]2SC[C@@H]3NC(=O)N[C@@H]32)c2ccccc21

binding [8]: yes
Structure (SMILES): CCc1c(C)c2cc3nc(cc4nc(cc5c(CC)c(C)c(cc1[nH]2)n5C)C(C)=C4CCC(=O)O)C(CCC(=O)O)=C3C
